Laboratory results taken from the supplement of paper PMC8728848.
The list shows a part of the results.

Experiments:
Experiment in all cases: glycan array binding signal (z-score within array); higher = stronger binding
Details in all cases: glycan notation: IUPAC condensed, linker removed
Fuc(a1-2)Gal = molecular target: Fuc(a1-2)Gal
Summary of the method: (§1)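 The Consortium for Functional Glycomics database supplied 3228 glycan arrays, of which those lacking an available protein sequence were dropped. The binding signal, a within-array Z-score, was averaged across arrays of the same protein sequence and across linkers. Negative scores can be read as non-binding.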

Fuc(a1-2)Gal(b1-3)GalNAc = molecular target: Fuc(a1-2)Gal(b1-3)GalNAc
Summary of the method: as §1

[1] = molecular target: Fuc(a1-2)Gal(b1-3)GalNAc(a1-3)[Fuc(a1-2)]Gal(b1-4)Glc
Summary of the method: as §1

[2] = molecular target: Fuc(a1-2)Gal(b1-3)GalNAc(a1-3)[Fuc(a1-2)]Gal(b1-4)GlcNAc
Summary of the method: as §1

[3] = molecular target: Fuc(a1-2)Gal(b1-3)GalNAc(b1-3)Gal
Summary of the method: as §1

[4] = molecular target: Fuc(a1-2)Gal(b1-3)GalNAc(b1-3)Gal(a1-4)Gal(b1-4)Glc
Summary of the method: as §1

[5] = molecular target: Fuc(a1-2)Gal(b1-3)GalNAc(b1-4)[Neu5Ac(a2-3)]Gal(b1-4)Glc
Summary of the method: as §1

Fuc(a1-2)Gal(b1-3)GlcNAc = molecular target: Fuc(a1-2)Gal(b1-3)GlcNAc
Summary of the method: as §1

[6] = molecular target: Fuc(a1-2)Gal(b1-3)GlcNAc(b1-2)Man(a1-3)[Fuc(a1-2)Gal(b1-3)GlcNAc(b1-2)Man(a1-6)]Man(b1-4)GlcNAc(b1-4)GlcNAc
Summary of the method: as §1

[7] = molecular target: Fuc(a1-2)Gal(b1-3)GlcNAc(b1-2)Man(a1-3)[Fuc(a1-2)Gal(b1-3)GlcNAc(b1-2)Man(a1-6)]Man(b1-4)GlcNAc(b1-4)[Fuc(a1-6)]GlcNAc
Summary of the method: as §1

[8] = molecular target: Fuc(a1-2)Gal(b1-3)GlcNAc(b1-3)Gal(b1-4)Glc
Summary of the method: as §1

[9] = molecular target: Fuc(a1-2)Gal(b1-3)GlcNAc(b1-3)GalNAc
Summary of the method: as §1

[10] = molecular target: Fuc(a1-2)Gal(b1-3)GlcNAc(b1-3)[Fuc(a1-2)Gal(b1-3)GlcNAc(b1-6)]GalNAc
Summary of the method: as §1

[11] = molecular target: Fuc(a1-2)Gal(b1-3)GlcNAc(b1-3)[Gal(b1-4)GlcNAc(b1-6)]Gal(b1-4)Glc
Summary of the method: as §1

[12] = molecular target: Fuc(a1-2)Gal(b1-3)GlcNAc(b1-3)[Neu5Ac(a2-6)Gal(b1-4)GlcNAc(b1-6)]Gal(b1-4)Glc
Summary of the method: as §1

[13] = molecular target: Fuc(a1-2)Gal(b1-3)GlcNAc6S
Summary of the method: as §1

[14] = molecular target: Fuc(a1-2)Gal(b1-3)[Fuc(a1-4)]GlcNAc
Summary of the method: as §1

[15] = molecular target: Fuc(a1-2)Gal(b1-3)[Fuc(a1-4)]GlcNAc(b1-2)Man(a1-3)[Fuc(a1-2)Gal(b1-3)[Fuc(a1-4)]GlcNAc(b1-2)Man(a1-3)]Man(b1-4)GlcNAc(b1-4)GlcNAc
Summary of the method: as §1

[16] = molecular target: Fuc(a1-2)Gal(b1-3)[Fuc(a1-4)]GlcNAc(b1-2)Man(a1-3)[Fuc(a1-2)Gal(b1-3)[Fuc(a1-4)]GlcNAc(b1-2)Man(a1-6)]Man(b1-4)GlcNAc(b1-4)[Fuc(a1-6)]GlcNAc(b1-4)[Fuc(a1-6)]GlcNAc
Summary of the method: as §1

[17] = molecular target: Fuc(a1-2)Gal(b1-3)[Fuc(a1-4)]GlcNAc(b1-3)[Fuc(a1-3)[Gal(b1-4)]GlcNAc(b1-6)]Gal(b1-4)Glc
Summary of the method: as §1

[18] = molecular target: Fuc(a1-2)Gal(b1-3)[Fuc(a1-4)]GlcNAc(b1-3)[Gal(b1-4)GlcNAc(b1-6)]Gal(b1-4)Glc
Summary of the method: as §1

[19] = molecular target: Fuc(a1-2)Gal(b1-4)Fuc(a1-3)]GlcNAc(b1-2)Man(a1-3)[Fuc(a1-2)Gal(b1-4)[Fuc(a1-3)]GlcNAc(b1-2)Man(a1-6)]Man(b1-4)GlcNAc(b1-4)GlcNAc
Summary of the method: as §1

Fuc(a1-2)Gal(b1-4)Glc = molecular target: Fuc(a1-2)Gal(b1-4)Glc
Summary of the method: as §1

Fuc(a1-2)Gal(b1-4)Glc6S = molecular target: Fuc(a1-2)Gal(b1-4)Glc6S
Summary of the method: as §1

Fuc(a1-2)Gal(b1-4)GlcNAc = molecular target: Fuc(a1-2)Gal(b1-4)GlcNAc
Summary of the method: as §1

[20] = molecular target: Fuc(a1-2)Gal(b1-4)GlcNAc(b1-2)Man
Summary of the method: as §1

[21] = molecular target: Fuc(a1-2)Gal(b1-4)GlcNAc(b1-2)Man(a1-3)[Fuc(a1-2)Gal(b1-4)GlcNAc(b1-2)Man(a1-6)]Man(b1-4)GlcNAc(b1-4)GlcNAc
Summary of the method: as §1

[22] = molecular target: Fuc(a1-2)Gal(b1-4)GlcNAc(b1-2)Man(a1-3)[Fuc(a1-2)Gal(b1-4)GlcNAc(b1-2)Man(a1-6)]Man(b1-4)GlcNAc(b1-4)[Fuc(a1-6)]GlcNAc
Summary of the method: as §1

[23] = molecular target: Fuc(a1-2)Gal(b1-4)GlcNAc(b1-2)[Fuc(a1-2)Gal(b1-4)GlcNAc(b1-4)]Man(a1-3)[Fuc(a1-2)Gal(b1-4)GlcNAc(b1-2)Man(a1-6)]Man(b1-4)GlcNAc(b1-4)GlcNAc
Summary of the method: as §1

[24] = molecular target: Fuc(a1-2)Gal(b1-4)GlcNAc(b1-3)Gal(b1-4)GlcNAc
Summary of the method: as §1

B1: mCC1-Hexahis-Precomplexed (Mus musculus), P31809 (protein)
chain: MELASAHLHKGQVPWGGLLLTASLLASWSPATTAEVTIEAVPPQVAEDNNVLLLVHNLPLALGAFAWYKGNTTAIDKEIARFVPNSNMNFTGQAYSGREIIYSNGSLLFQMITMKDMGVYTLDMTDENYRRTQATVRFHVHPILLKPNITSNNSNPVEGDDSVSLTCDSYTDPDNINYLWSRNGESLSEGDRLKLSEGNRTLTLLNVTRNDTGPYVCETRNPVSVNRSDPFSLNIIYGPDTPIISPSDIYLHPGSNLNLSCHAASNPPAQYFWLINEKPHASSQELFIPNITTNNSGTYTCFVNNSVTGLSRTTVKNITVLEPVTQPFLQVTNTTVKELDSVTLTCLSNDIGANIQWLFNSQSLQLTERMTLSQNNSILRIDPIKREDAGEYQCEISNPVSVRRSNSIKLDIIFDPTQGGLSDGHHHHHH
B1 was tested, and the “glycan array binding signal (z-score)” value (Fuc(a1-2)Gal) was -0.259, the “glycan array binding signal (z-score)” value (Fuc(a1-2)Gal(b1-3)GalNAc) was -0.158 and the “glycan array binding signal (z-score)” value [1] was -0.101. The “glycan array binding signal (z-score)” value [2] was -0.214, the “glycan array binding signal (z-score)” value [3] was -0.135 and the “glycan array binding signal (z-score)” value [4] was -0.267. The “glycan array binding signal (z-score)” value [5] was -0.199, the “glycan array binding signal (z-score)” value (Fuc(a1-2)Gal(b1-3)GlcNAc) was -0.229 and the “glycan array binding signal (z-score)” value [6] was 0.072. The “glycan array binding signal (z-score)” value [7] was -0.146, the “glycan array binding signal (z-score)” value [8] was -0.182 and the “glycan array binding signal (z-score)” value [9] was -0.245. For the same binder, the “glycan array binding signal (z-score)” value [10] was -0.141, the “glycan array binding signal (z-score)” value [11] was -0.302 and the “glycan array binding signal (z-score)” value [12] was -0.125. For the same binder, the “glycan array binding signal (z-score)” value [13] was 0.07, the “glycan array binding signal (z-score)” value [14] was -0.166 and the “glycan array binding signal (z-score)” value [15] was 0.048. For the same binder, the “glycan array binding signal (z-score)” value [16] was 0.069, the “glycan array binding signal (z-score)” value [17] was -0.173 and the “glycan array binding signal (z-score)” value [18] was -0.075. For the same binder, the “glycan array binding signal (z-score)” value [19] was 0.152, the “glycan array binding signal (z-score)” value (Fuc(a1-2)Gal(b1-4)Glc) was -0.182 and the “glycan array binding signal (z-score)” value (Fuc(a1-2)Gal(b1-4)Glc6S) was -0.226. The “glycan array binding signal (z-score)” value (Fuc(a1-2)Gal(b1-4)GlcNAc) was -0.269, the “glycan array binding signal (z-score)” value [20] was -0.232 and the “glycan array binding signal (z-score)” value [21] was 0.061. The “glycan array binding signal (z-score)” value [22] was 0.228, the “glycan array binding signal (z-score)” value [23] was 0.23 and the “glycan array binding signal (z-score)” value [24] was -0.283.
